Experimental data taken from PubChem BioAssay AID485344 (National Center for Advancing Translational Sciences (NCATS), 2010).
Among all 340,000 compounds or so, about 6,900 (2%) were called active. No stated cut-off is given here; in the data, active means inhibition above about 30%; inactive means below that, where a call was filed. Only a part is listed here, and it is no random draw. Entries without a call were filed so in the source.

Each molecule was assayed against D(2) dopamine receptor (Homo sapiens) (UniProt P14416) (assay: HTS Assay for Allosteric Antagonists of the Human D2 Dopamine Receptor: Primary Screen for Antagonists). Details: HEK293 TREx D2 cells, calcium flux, dopamine EC80; at 10 µM; stronger effect = higher value.
Sequence of UniProt P14416 (P14416 whole entry, looked up): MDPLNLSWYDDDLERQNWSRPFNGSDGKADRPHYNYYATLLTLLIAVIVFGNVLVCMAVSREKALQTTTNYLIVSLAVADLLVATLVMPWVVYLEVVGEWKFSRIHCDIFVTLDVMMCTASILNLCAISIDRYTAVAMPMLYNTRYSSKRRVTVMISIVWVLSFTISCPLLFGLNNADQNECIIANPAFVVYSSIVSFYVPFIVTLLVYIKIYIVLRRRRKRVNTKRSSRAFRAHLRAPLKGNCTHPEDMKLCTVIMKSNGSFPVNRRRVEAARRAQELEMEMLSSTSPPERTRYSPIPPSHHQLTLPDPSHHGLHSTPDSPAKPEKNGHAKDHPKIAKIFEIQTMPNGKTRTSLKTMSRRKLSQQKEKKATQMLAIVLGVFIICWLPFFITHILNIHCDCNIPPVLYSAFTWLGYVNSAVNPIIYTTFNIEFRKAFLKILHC
Method in brief: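 Tetracycline-induced HEK293 T-REx cells expressing D2 force-coupled to calcium signalling were dye-loaded, exposed to compound for 180 s, then challenged with an EC80 of dopamine; calcium flux was followed kinetically for a further 180 s.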
Further: 0% is about no effect.

SMILES | inhibition
COc1ccc(S(=O)(=O)N(Cc2nc(-c3cccc(C)c3)no2)C2CCCCC2)cc1 | 6.07%
Cc1ccccc1Cn1c(SCc2ccc(C(=O)NCc3cccs3)cc2)nc2ccncc21 | -14.8%
Cc1cccc(OCc2nnc(SCC(=O)Nc3ccc(C)cc3C)o2)c1 | -11.5%
COc1ccccc1N1CCN(S(=O)(=O)c2ccc3c(c2)oc(=O)n3C)CC1 | 0.604%
CCCSCCCNC(=O)C1CCN(C(=O)c2cc3sccc3n2C)CC1 | -14.3%
Cc1ccc(NC(=O)CSc2nc(-c3ccc(F)cc3)cc(C(F)(F)F)c2C#N)cc1 | -4.27%
O=C(CCn1c(=O)c2cccn2c2ccc(F)cc21)NCc1ccccc1F | 3.16%
Cc1cccc(NC(=O)Cn2c(=O)n(Cc3ccc(C(=O)NCc4ccc5c(c4)OCO5)cc3)c(=O)c3ccccc32)c1 | 12.4%
CCNC(=O)CC1C(=O)N(c2ccccc2)C(=O)N1Cc1ccc(F)cc1 (stereo not drawn) | -15.3%
CCOc1ccc(C(=O)c2cn(CC(=O)Nc3cc(OC)cc(OC)c3)c3ccc(F)cc3c2=O)cc1 | -18.7%
Cc1ccc(CCNC(=O)CCn2c(=O)c3cccn3c3ccc(F)cc32)cc1 | -4.88%
Fc1cccc(F)c1-c1nc(-c2ccncc2)no1 | -3.53%
COc1cccc(N(C(C)=O)c2nc(C)cc(C)c2C#N)c1 | active: 36.4%
Cc1cc(=O)n2nc(N3CCC(C(=O)Nc4ccc(C(C)C)cc4)CC3)sc2n1 | 3.92%
CC(=O)c1cccc(NC(=O)CCc2c(C)nc3c(-c4ccc(F)cc4)c(C)nn3c2C)c1 | 22.6%
O=C(Nc1ccccc1)N1CCN(C(=O)c2nsc3ccccc23)CC1 | -17.7%
Cc1nc(-c2ccc(Cl)cc2)sc1CCNC(=O)c1ccco1 | -4.15%
Cc1ccc(-n2c(=O)c3c4c(sc3n(Cc3ccccc3F)c2=O)CCC4)cc1C | -11.5%
Cc1coc2cc3oc(=O)c(CC(=O)NCc4ccc(F)cc4)c(C)c3cc12 | 27.7%
Cc1ccc(O)c(-c2ccnc3cc(-c4ccc(Cl)cc4)nn23)c1 | -5.1%
COc1cc(-c2nc3sccn3c2Nc2cccc(C)c2)ccc1O | 3.13%
Cc1ccccc1NC(=O)CCc1c(C)nn(-c2ccc(N3CCCCC3)nn2)c1C | -2.25%
Oc1ccccc1-c1nc(/C=C/c2ccccc2Cl)no1 | -13.2%
Cc1ccc(Cn2c(=O)n(Cc3nc(-c4ccccc4)no3)c(=O)c3cc4c(cc32)OCO4)cc1 | 6.98%

SMILES | inhibition
COc1ccccc1OCCCn1c(C2CC(=O)N(c3ccccc3Cl)C2)nc2ccccc21 (stereo not drawn) | -0.489%
COc1ccc(C(=O)Nc2ccc3nc(SCc4ccc(C)cc4)sc3c2)cc1 | -4.24%
COc1ccc(C(=O)Nc2ccc(-c3cc4ccccc4oc3=O)c(C)c2)cc1Br | 3.41%
Cc1ccc(C)c(N2CCN(C(=O)CCCn3ncn4c(cc5occc54)c3=O)CC2)c1 | -19.1%
CCOc1ccc(CNC(=O)CCn2nc(C)c3c(C)n(-c4ccccc4)nc3c2=O)cc1 | -14%
CCc1ccc(-n2c(=O)c3c(C)c(C(=O)N(C)C)sc3n(Cc3cccc(C)c3)c2=O)cc1 | 14.2%
COc1ccc(N2CCN(CCOc3ccc4c(C)cc(=O)oc4c3)CC2)cc1 | active: 72.3%
CN(C)c1ccc(CNC(=O)CCCN2C(=O)CCn3nc(-c4cccn4C)cc32)cc1 | 8.09%
Fc1ccc(-n2cc(CNCCc3ccncc3)c(-c3ccccc3Cl)n2)cc1 | active: 31.3%
CCOC(=O)C1CCN(c2nc(-c3ccc(Br)cc3)nc3ccccc23)CC1 | -7.12%
O=C(Nc1ccc(Cl)cc1)N1CCC(CN2CCCC2)CC1 | 15.1%
CC(=O)c1cccc(NC(=O)C(Cc2ccccc2)NS(=O)(=O)c2ccc(Br)s2)c1 (stereo not drawn) | 11.5%
Cc1cccc(CCNC(=O)Cn2ncc3c(=O)oc4ccccc4c32)c1 | 7.59%
Cc1ccc2c(c1)C(c1ccccc1)N(C(=O)c1ccc(OC(C)C)cc1)CC(=O)N2 (stereo not drawn) | -3.57%
COc1ccc(Cn2cc(C(=O)c3ccc(OC)cc3)c(=O)c3cc4c(cc32)OCCO4)cc1 | -5.16%
COc1ccc(OC)c(NC(=O)c2cn3c4c(ccc(Cl)c4c2=O)OC(C)C3)c1 (stereo not drawn) | 7.56%
CCCCOc1ccc(C(=O)NCC2(N3CCN(C)CC3)CCCCC2)cc1 | 5.47%
CCS(=O)(=O)N1CCc2cc(C(=O)Nc3ccc(C)c(Cl)c3)ccc21 | 21.8%
O=C(Nc1nnc(S(=O)(=O)N2CCOCC2)s1)c1cccc(F)c1 | 4.5%
O=C1CCc2cc(S(=O)(=O)NCc3ccc(F)cc3)cc3c2N1CC3 | 16.8%
Cc1ccc(Cc2nc3ccccc3nc2SCC(=O)N2CCN(c3ccccc3F)CC2)cc1 | 6.82%
COc1ccc(C(=O)COC(=O)c2cc(-c3ccccc3)nc3c(C)cccc23)cc1 | 9.05%
Cc1nc2c(-c3ccccc3)c(C)nn2c(C)c1CCC(=O)N1CCN(c2ccccc2)CC1 | 12.3%
CCC(=O)N1CCc2cc(Br)cc(S(=O)(=O)N3CCCC(C(=O)NCc4cccc(OC)c4)C3)c21 (stereo not drawn) | 24%

SMILES | inhibition
CC(=O)N1CCCc2ccc(NS(=O)(=O)c3ccc(C)c(C)c3)cc21 | -5.36%
Cn1nc(C(=O)N2CCN(c3cccc(Cl)c3)CC2)c2c1-c1ccccc1S(=O)(=O)C2 | 5.2%
CC[C@@H](C(=O)[C@@H](C)[C@@H](O)[C@H](C)CCc1ccc(C)c(O)c1C(=O)O)[C@H]1O[C@](CC)([C@H]2CC[C@](O)(CC)[C@H](C)O2)C[C@@H]1C | active: 48.9%
CCc1cc2c(cc3c(=O)n(CC(=O)N4CCC(C)CC4)nc(CC)n32)s1 | -6.13%
CCCS(=O)(=O)c1ncc(Cl)c(C(=O)Nc2c(C(=O)c3ccccc3)oc3ccccc23)n1 | 3.95%
COc1ccc(CC(=O)NCc2ccc3c(c2)CCN3C(C)=O)cc1OC | -3.09%
CCN(CC)S(=O)(=O)c1ccc2c(c1)c(=O)c(C(=O)NCc1ccc(Cl)cc1)cn2C | 4.29%
CCOC(=O)C1CCN(C(=O)c2ccc3c(c2)sc2nc(-c4ccccc4)cn23)CC1 | 13.9%
COc1cccc(CNC(=O)C2Cc3cc(S(=O)(=O)N4CCCCCC4)ccc3N2C(C)=O)c1 (stereo not drawn) | 4.49%
Cc1c(C(=O)N(C)C)sc2c1c(=O)n(-c1ccc(F)cc1)c(=O)n2Cc1cc(=O)n2ccccc2n1 | 6.83%
CCCCCC[N+](C)(C)CC/C=C1/c2ccccc2Sc2ccc(Cl)cc21 | active: 75.3%
Cc1ccc(NC(=O)C2C3C=CC4(O3)C2C(=O)N(CCCN2CCOCC2)C4C(=O)NC2CCCCC2)cc1Cl (stereo not drawn) | active: 31.1%
Nc1c(C(=O)Nc2ccc(Cl)c(C(F)(F)F)c2)sc2nc(-c3ccncc3)ccc12 | 4.61%
COc1ccc(OC)c(NC(=O)COCc2cc(-c3ccco3)on2)c1 | -22%
Cc1cc(C)c(Cn2c(=O)n(Cc3ccccc3)c(=O)c3c(C)c(C)sc32)c(C)c1 | -9.55%
COc1ccc(-n2nc(C(=O)N3CCCCC3)c3c4ccccc4n(C)c3c2=O)cc1Cl | 2.44%
Cc1ccc(S(=O)(=O)c2nnn(CC(=O)Nc3ccccc3C)c2N)cc1 | -24.3%
O=C(O)CC(c1ccc(Br)cc1)N1Cc2ccccc2C1=O (stereo not drawn) | active: 42.3%
CCOC(=O)c1cc(-c2ccccc2)n(CCC(=O)NCCc2ccc(C)cc2)c1C | -7.7%
COc1ccc(N2CCN(S(=O)(=O)c3cc(Br)cc4c3N(C(=O)C3CC3)CC4)CC2)cc1 | -11.3%
CC(C)(C)OC(=O)N1CCC(c2c(C(=O)N3CCN(c4ccccn4)CC3)cnn2-c2cccc(F)c2)CC1 | -3.06%
Cc1ccc(NC(=O)Cn2c(=O)n(Cc3ccco3)c(=O)c3sc4ccccc4c32)c(C)c1 | 1.04%
Cc1ccc(C(=O)NCC(c2ccco2)S(=O)(=O)c2ccccc2)cc1C (stereo not drawn) | -8.58%
COc1cc2c(=O)c(S(=O)(=O)c3ccc(C(C)C)cc3)cn(Cc3ccccc3C)c2cc1OC | -6.14%

SMILES | inhibition
CCOC(=O)c1c(C)c(-c2ccccc2)n(CC(=O)NCc2ccccc2)c1C | 15.1%
CCOC(=O)c1ccc(NS(=O)(=O)c2ccc3c(c2)CCN3C(=O)CC)cc1 | -4.4%
CCOC(=O)N1CCc2c(sc(NCc3cccs3)c2C(=O)Nc2cc(Cl)ccc2OC)C1 | -10.2%
CCN(CC)c1ccc(NC(=O)C2CCN(S(=O)(=O)c3ccc4c(c3)oc(=O)n4C)CC2)c(C)c1 | 0.0645%
Cc1cccc(NC(=O)C(NS(=O)(=O)c2cccc3nsnc23)c2ccccc2)c1C (stereo not drawn) | -6.26%
COc1ccccc1N1CCN(C(=O)c2ccc3c(c2)N(Cc2cc(C)ccc2C)C(=O)c2ccccc2S3(=O)=O)CC1 | 2%
COc1ccc(CN(C(=O)c2cc(=O)c3ccccc3o2)C2CCS(=O)(=O)C2)cc1OC (stereo not drawn) | -12.4%
Cc1cccc(N2CCN(CC3CCCCC3)CC2)c1C | active: 73.3%
O=C(Nc1nc(-c2ccccc2)ns1)c1ccc(Cl)cc1 | 11.9%
Cc1cccc(NC(=O)CCNC(=O)c2ccccc2)c1 | active: 35.5%
COc1cccc(NC(=O)CN2C(=O)CC(c3ccco3)Sc3ccccc32)c1 (stereo not drawn) | -3.86%
Cc1cccc(C)c1NC(=O)CN1C(=O)N(C)Cc2ccccc21 | active: 44.9%
COC(=O)c1sc(-c2ccccc2)cc1NC(=O)c1cccc(Cl)c1 | 6.55%
CC1CCN(CCOc2cccc(Br)c2)CC1 | active: 97.8%
Cc1cccc(C)c1NC(=O)C(=O)NCC(c1cccnc1)N1CCc2ccccc21 (stereo not drawn) | 15.1%
O=C(C1CCC(Cn2c(=O)c3sccc3n(Cc3ccccc3F)c2=O)CC1)N1CCOCC1 (stereo not drawn) | -0.0173%
COc1cc(NC(=O)c2cc3c(=O)n(Cc4ccco4)ccc3nc2C)cc(OC)c1OC | 5.38%
O=C(NCc1ccco1)c1ccc(S(=O)(=O)N2CCCc3ccccc32)cc1 | active: 40%
Cc1ccc(C#N)c(SCCN2CCCCC2)n1 | active: 33.5%
CCOc1ccc(NC(=O)CN2C(=O)c3ccccc3Sc3ccc(C(=O)OC)cc32)cc1 | 11.1%
Cc1ccc2c(c1)c(=O)c1ccccc1n2CCCC(=O)Nc1ccc(Cl)c(Cl)c1 | 5.91%
